The RNAGym collection of RNA variant scans (doi:10.1093/nar/gkz1192)
The source gives no read counts; variants with many changes may rest on few reads.

B1: CPEB3 Ribozyme (parent)
chain: UAACAGGGGGCCACAGCAGAAGCGUUCACGUCGCAGCCCCUGUCAGAUUCUGGUGAAUCUGCGAAUUCUGCUGUAUAUCUC

Variants of: B1
Assay: self-cleavage, relative activity (ratio to wild type); higher = more cleavage; in vitro, sequencing
In short: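 CPEB3 self-cleaving ribozyme mutant libraries were made by rounds of error-prone PCR, barcoded, and transcribed in vitro with T7 RNA polymerase for 5 hours at 37°C. Cleavage occurred during transcription and a 15 min DNase I step before EDTA stop. RNAs were reverse transcribed with template switching and Illumina-sequenced, with DNA sequencing mapping barcodes to variants. Relative activity is the variant's cleaved/total read fraction divided by wild type's (minimum 5 reads), averaged across three batches.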
UAACAGGGGGCCACAGCAGAAGCGUUCACGUCGCAGCCCCUGUCAGUCUCUGGUGUAUCUGCGAACUCUGCUGUAUACCUC [A47U U48C A56U U66C U78C] showed a self-cleavage of 0.06. In the case of UAACAGGGGGCCACAGCAGAAGCGUUCACGUCGCAGCCCCUGUCAGUCUCUGGUGAAUCUGCGAAUUCUGCUGUAUAACUC [A47U U48C U78A], the self-cleavage is reported as 0.19. UAACAGGGGGCCACAGCAGAAGCGUUCACGUCGCAGCCCCUGUCAGUUUCCGGUCUAUCCGCGAAUUCUGCUGUAUAUCUC [A47U U51C G55C A56U U60C] showed a self-cleavage of 0.25. UAACAGGGGGCCACAGCAGAAGCGUUCACGUCGCAGCCCCUGUCAGUUUCCGGUGAAUCUGCGAAAUCUGCAGUAUAUCUC [A47U U51C U66A U72A] gave a self-cleavage of 0.14. UAACAGGGGGCCACAGCAGAAGCGUUCACGUCGCAGCCCCUGUCAGUUUCUGGCGAGUCUGCGAAUCCUGCUGUAUAUCUC [A47U U54C A57G U67C] showed a self-cleavage of 0.12. UAACAGGGGGCCACAGCAGAAGCGUUCACGUCGCAGCCCCUGUCAGUUUCUGGCGAAUCUGCGAAUUCUGCUGUGUAUCUC [A47U U54C A75G] gave a self-cleavage of 0.2. Work on UAACAGGGGGCCACAGCAGAAGCGUUCACGUCGCAGCCCCUGUCAGUUUCUGGUGAACCUGCGAAUUCAGCUGUAUAUCUC [A47U U58C U69A] yielded a self-cleavage of 0.12. With UAACAGGGGGCCACAGCAGAAGCGUUCACGUCGCAGCCCCUGUCAGUUUCUGGUGAACCUGCGAAUUCUGCUGUAAAUCAC [A47U U58C U76A U80A] the self-cleavage was 0.5. For UAACAGGGGGCCACAGCAGAAGCGUUCACGUCGCAGCCCCUGUCAGUUUCUGGUGAAUCAGCUAAUUCUGCCGUAUAUCUC [A47U U60A G63U U72C], the self-cleavage was 0.21. With UAACAGGGGGCCACAGCAGAAGCGUUCACGUCGCAGCCCCUGUCAGUUUCUGGUGAAUCCGCGAAUUCUGCCGUAUAUCUC [A47U U60C U72C] the self-cleavage was 0.11. In the case of UAACAGGGGGCCACAGCAGAAGCGUUCACGUCGCAGCCCCUGUCAGUUUCUGGUGAAUCUGCGAACUCUGCUGUAUAACUC [A47U U66C U78A], the self-cleavage is reported as 0.43. UAACAGGGGGCCACAGCAGAAGCGUUCACGUCGCAGCCCCUGUCAGUUUCUGGUGAAUCUGCGAAUUCCGCUGUAUAUCUA [A47U U69C C81A] showed a self-cleavage of 0.58. For UAACAGGGGGCCACAGCAGAAGCGUUCACGUCGCAGCCCCUGUCAGUUUCUGGUGAAUCUGCGAAUUCUGCGGUAUAACUC [A47U U72G U78A], the self-cleavage was 0.2. For UAACAGGGGGCCACAGCAGAAGCGUUCACGUCGCAGCCCCUGUCAGAAUCUGGUGAAUCUGCGGAUCCUGCUGUAUAUCUC [U48A A64G U67C], the self-cleavage was 0.14. In the case of UAACAGGGGGCCACAGCAGAAGCGUUCACGUCGCAGCCCCUGUCAGAAUCUGGUGAAUCUGCGUGUUCUGCUGUAUAUCUC [U48A A64U A65G], the self-cleavage is reported as 0.09. UAACAGGGGGCCACAGCAGAAGCGUUCACGUCGCAGCCCCUGUCAGAAUCUGGUGAAUCUGCGAGUUCCGCUGUUUAUCUC [U48A A65G U69C A75U] gave a self-cleavage of 0.14. Variant UAACAGGGGGCCACAGCAGAAGCGUUCACGUCGCAGCCCCUGUCAGAACCUGGUGAAUCUGCGAAUCCUGCUGUAUAUCUC [U48A U49C U67C] has a self-cleavage of 0.09. In the case of UAACAGGGGGCCACAGCAGAAGCGUUCACGUCGCAGCCCCUGUCAGAAUCUGGUGAAUCCGCGAAUUCUGCUGUAUAACUC [U48A U60C U78A], the self-cleavage is reported as 0.17. Variant UAACAGGGGGCCACAGCAGAAGCGUUCACGUCGCAGCCCCUGUCAGAAUCUGGUGAAUCUGCGAAUUCCGCUGUAGAUCUC [U48A U69C U76G] has a self-cleavage of 0.17. For UAACAGGGGGCCACAGCAGAAGCGUUCACGUCGCAGCCCCUGUCAGACUCUGGUGGAUCCGCGAAUACUGCUGUAUAUCUC [U48C A56G U60C U67A], the self-cleavage was 0.17. For UAACAGGGGGCCACAGCAGAAGCGUUCACGUCGCAGCCCCUGUCAGACUCUGGUGGAUCUGCGAAUACUGCUGAAUUUCUC [U48C A56G U67A U74A A77U], the self-cleavage was 0.2. With UAACAGGGGGCCACAGCAGAAGCGUUCACGUCGCAGCCCCUGUCAGACUCUGGUGGAUCUGCGAAUUCUGCUGUAUACCUC [U48C A56G U78C] the self-cleavage was 0.38. UAACAGGGGGCCACAGCAGAAGCGUUCACGUCGCAGCCCCUGUCAGACUCUGGUGUAUCUGCGAAUCCUGCAGUAUAUCUC [U48C A56U U67C U72A] showed a self-cleavage of 0.08. UAACAGGGGGCCACAGCAGAAGCGUUCACGUCGCAGCCCCUGUCAGACUCUGGUGAGUCUGCGAAUUUUGCUGUAUAUCUC [U48C A57G C68U] gave a self-cleavage of 1.16. Work on UAACAGGGGGCCACAGCAGAAGCGUUCACGUCGCAGCCCCUGUCAGACUCUGGUGAGUCUGCGAAUUCUCCUGUAUAUCAC [U48C A57G G70C U80A] yielded a self-cleavage of 0.18. UAACAGGGGGCCACAGCAGAAGCGUUCACGUCGCAGCCCCUGUCAGACUCUGGUGAGCCUGCGAAUUCUGCUGUAUAUCUC [U48C A57G U58C] gave a self-cleavage of 0.7. UAACAGGGGGCCACAGCAGAAGCGUUCACGUCGCAGCCCCUGUCAGACUCUGGUGAGCCUGCGGAUUCUGCUGUAUAUCUC [U48C A57G U58C A64G] showed a self-cleavage of 0.84. With UAACAGGGGGCCACAGCAGAAGCGUUCACGUCGCAGCCCCUGUCAGACUCUGGUGAUCCAGCGAAUUCUGCUGUGUAUCUC [U48C A57U U58C U60A A75G] the self-cleavage was 0.37. For UAACAGGGGGCCACAGCAGAAGCGUUCACGUCGCAGCCCCUGUCAGACUCUGGUGAAUCUGCGGAUUCUGCUGUAUAUCUA [U48C A64G C81A], the self-cleavage was 0.6. UAACAGGGGGCCACAGCAGAAGCGUUCACGUCGCAGCCCCUGUCAGACUCUGGUGAAUCUGCGAGUUCUGCAGUAUAUCUC [U48C A65G U72A] gave a self-cleavage of 0.29. UAACAGGGGGCCACAGCAGAAGCGUUCACGUCGCAGCCCCUGUCAGACUCUGGUGAAUCUGUGUAUUCUGCUGUAUAUCUA [U48C C62U A64U C81A] gave a self-cleavage of 0.2. UAACAGGGGGCCACAGCAGAAGCGUUCACGUCGCAGCCCCUGUCAGACUCUGGUGAAUCUGCGAAUUACGCUGUAUAUCUC [U48C C68A U69C] showed a self-cleavage of 0.25. UAACAGGGGGCCACAGCAGAAGCGUUCACGUCGCAGCCCCUGUCAGACUCUGGUGAAUCUGCGAAUUCUACAGUAUAUCUC [U48C G70A U72A] gave a self-cleavage of 0.3. Work on UAACAGGGGGCCACAGCAGAAGCGUUCACGUCGCAGCCCCUGUCAGACCCUGGUGAAUCUGCAAAUUCUGCUGUGUAUCUC [U48C U49C G63A A75G] yielded a self-cleavage of 0.09.
